Data on 109 sequences can be found in paper PMC6212790.

The other results are listed elsewhere or left out. At the low end of the ranking the order means little.

For this experiment, the target named is T1, GST-Rok-C97-191 (UniProt O34857).
T1 sequence: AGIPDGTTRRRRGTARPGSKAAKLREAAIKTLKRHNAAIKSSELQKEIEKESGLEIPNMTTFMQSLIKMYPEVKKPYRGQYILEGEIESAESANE
Briefly: protein binding microarray.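 Note: rank score from −0.5 (least bound) to 0.5 (best bound).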 The settings on record: Rok is a gene silencer of Bacillus subtilis; high values mean tight binding; most listed sequences are background and not binding sites; double strand, one strand shown.
Take GTTCTAGA: the binding signal amounted to 0.132 E-score.
Then CTCTACCA, with 0.159 E-score; and ACATTAGT, with 0.247 E-score; and GATCCAGA, with -0.053 E-score.
Then CTTGTCTA, with -0.0276 E-score; and CTCCAAAC, with 0.0111 E-score.
Then CTTACCTA, with 0.203 E-score; and GGTCAACA, with -0.115 E-score.
GCGTAATA registered a binding signal of 0.183 E-score.
Under CTGCCGAA stands -0.111 E-score.
Then GAAACCGA, with -0.127 E-score; and TATATTGA, with 0.288 E-score.
Then AGCCATGA, with -0.0665 E-score; and GTGGACAC, with -0.258 E-score; and GAGGCTAC, with -0.296 E-score.
With CCCATTTC, the binding signal is 0.0795 E-score.
Then CGGCCTGA, with -0.244 E-score; and CAAGAGGG, with -0.213 E-score; and TAACATTA, with 0.234 E-score.
GACAGTAA registered a binding signal of 0.144 E-score.
Then AGTCTGAG, with 0.0475 E-score.
Then AGTAACAA, with 0.207 E-score; and AGCCGTTA, with 0.0336 E-score.
In turn, TACTTATA displayed a binding signal of 0.331 E-score.
The sequence ACTCTAAC showed a binding signal of 0.113 E-score.
Under CGGGGAGC stands -0.375 E-score; under ACTGCACG, -0.143 E-score.
Under AGGCCCAC stands -0.329 E-score.
ATAGTTAA registered a binding signal of 0.327 E-score.
Then TCTGGCAA, with -0.0496 E-score.
Under ACATCGAG stands 0.0748 E-score; under CATGATGA, 0.0928 E-score.
Under GCGAGCTA stands 0.0373 E-score; under ACTAGATC, 0.335 E-score; under AAGGAAAC, -0.325 E-score.
Regarding ACTGAATA, the binding signal worked out at 0.121 E-score.
Under ACAAGCAA stands 0.0415 E-score; under CAGCCCTC, -0.135 E-score; under CTAGGAAA, 0.0148 E-score.
Under CACGGAGC stands -0.133 E-score.
Then AAGTTAGG, with 0.0911 E-score.
TAGATGGA showed a binding signal of -0.0485 E-score.
Then TAGTGCAA, with 0.19 E-score.
In turn, GAGTGGAA yielded a binding signal of -0.185 E-score.
Then ACCTGCGG, with -0.0697 E-score.
Then AGTATCGG, with 0.0653 E-score.
Regarding GACCGATA, the binding signal is 0.0176 E-score.
Then CCGCCTCG, with -0.172 E-score; and TACAGTAA, with 0.319 E-score; and ACGCAACC, with -0.00125 E-score.
Consider AATTTCAA, for which the binding signal came out at 0.139 E-score.
With ATGAAGTA, the binding signal came to 0.232 E-score.
Regarding CTGTCAGA, the binding signal was -0.0787 E-score.
Under AGTGAACC stands -0.0543 E-score.
With CTATCGAG, the binding signal was 0.122 E-score.
Then CAGTCCAG, with -0.242 E-score; and CCTAGGAA, with 0.0104 E-score; and AGTAATCA, with 0.152 E-score.
Sequence ACCGAGTC showed a binding signal of -0.0145 E-score.
Then AAGCGCGA, with -0.00804 E-score; and CACAATTA, with 0.196 E-score.
Consider GCAGATAA, for which the binding signal was determined as 0.127 E-score.
Then CGTGGAAC, with -0.156 E-score; and TAGGGAGA, with -0.316 E-score.
Under AGTTAATC stands 0.0838 E-score; under CACATGGC, 0.0688 E-score.
Under ATTGGAGC stands -0.0295 E-score.
ATGACATC had a binding signal of -0.0261 E-score.
Under CTAGTTGC stands 0.23 E-score; under CCGTACCC, 0.0185 E-score.
Then AAGACTGG, with -0.0489 E-score; and CTCACTTC, with -0.103 E-score; and TAGTCTCA, with -0.188 E-score.
AATGTCCG: the binding signal is -0.0567 E-score.
Under ACCTTCGC stands -0.0326 E-score; under TTGACCAA, 0.0145 E-score; under ACTAATTC, 0.373 E-score.
Then AATGTCCT, with -0.133 E-score; and TCTTTGAA, with 0.0288 E-score; and GGTTGATA, with 0.112 E-score.
AGCAACTA registered a binding signal of 0.244 E-score.
Under ACATAGCT stands 0.133 E-score.
Under AAATACAA stands 0.265 E-score.
Under GGCCTCCC stands -0.404 E-score; under ACGCTCAG, -0.0936 E-score; under CACCTTAC, 0.091 E-score.
Take CTGACTAA: the binding signal was -0.0227 E-score.
Under TAACCATA stands 0.161 E-score.
Then CACGGTGG, with -0.112 E-score.
Then GTCGCCTA, with -0.125 E-score; and AAAGACGT, with -0.206 E-score; and AATATTTA, with 0.311 E-score.
Turning to AATGAAGC, the binding signal was -0.0713 E-score.
In turn, GAGGTTGC showed a binding signal of -0.00436 E-score.
Under CATCACTC stands 0.017 E-score; under TACGAAGA, 0.233 E-score; under CAAGTCCC, -0.198 E-score.
Then AAATTCTA, with 0.379 E-score.
Then CGTATGGC, with -0.112 E-score; and AGAAAGAC, with -0.0251 E-score.
The sequence CTCCGTGC displayed a binding signal of -0.185 E-score.
Under CAAGGGCG stands -0.259 E-score; under CCTCGCCG, -0.309 E-score; under ATCGTGTG, 0.00119 E-score.
Under AAGTCTTG stands -0.152 E-score; under AAGATAGA, 0.193 E-score; under AGCATCCC, -0.0271 E-score.
AGATGAAT returned a binding signal of 0.179 E-score.
Then CGTCACAA, with 0.00773 E-score.
